The values that follow come from publication PMC5656619.

Protein sequences, listed by entry. Tags and fused reporters are not part of them. Lines headed by an entry give the natural chain unless they say otherwise; changes in a name come on top.
UniProt Q9H0J9: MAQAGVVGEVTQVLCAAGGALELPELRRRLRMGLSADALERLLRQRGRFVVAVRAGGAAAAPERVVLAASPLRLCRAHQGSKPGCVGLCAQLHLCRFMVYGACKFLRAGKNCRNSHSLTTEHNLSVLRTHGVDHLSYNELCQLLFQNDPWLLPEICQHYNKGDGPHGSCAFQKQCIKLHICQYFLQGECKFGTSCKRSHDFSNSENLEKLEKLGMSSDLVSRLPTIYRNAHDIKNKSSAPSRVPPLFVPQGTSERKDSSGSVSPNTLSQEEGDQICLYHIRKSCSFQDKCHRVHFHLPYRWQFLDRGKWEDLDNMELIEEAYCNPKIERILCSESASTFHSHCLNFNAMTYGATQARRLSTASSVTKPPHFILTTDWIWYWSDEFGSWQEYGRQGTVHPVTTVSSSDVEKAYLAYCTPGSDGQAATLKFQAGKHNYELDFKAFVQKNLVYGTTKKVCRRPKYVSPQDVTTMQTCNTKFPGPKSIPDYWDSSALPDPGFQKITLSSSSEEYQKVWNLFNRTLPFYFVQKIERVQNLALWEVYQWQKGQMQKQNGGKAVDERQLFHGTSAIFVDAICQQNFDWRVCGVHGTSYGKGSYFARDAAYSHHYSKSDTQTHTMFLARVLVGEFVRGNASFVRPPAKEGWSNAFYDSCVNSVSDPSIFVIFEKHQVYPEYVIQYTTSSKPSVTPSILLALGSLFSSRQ

Experiment [1] deals with Myc-tagged full-length PARP12 wild-type (human) (UniProt Q9H0J9). Kind of experiment: co-IP; Myc-tagged PARP12 full-length immunoprecipitated with anti-Myc antibody on beads, then incubated 2 h at 4 °C with 700 μg HeLa lysate overexpressing the FLAG-tagged construct; lysis buffer A (50 mM Tris-HCl pH 7.4, 150 mM NaCl, 1% Triton-X100); Western blot with anti-FLAG and anti-PARP12; only the target purified. (In general: Immunoblotting shows a protein as a band on a membrane.)

Experiment [2] has the same target. Put plainly: co-IP; as a2 but lysis and washes in buffer B (25 mM Tris-HCl pH 7.4, 150 mM NaCl, 1% Triton-X100, 5 mM EDTA, 5 mM MgCl2), used for the FLAG-tagged MUT4 protein; only the target purified.
Experiment [3] concerns the target Myc-tagged PARP12 H564A (human) (UniProt Q9H0J9). Put plainly: co-IP; anti-Myc immunoprecipitation of total lysates (RIPA buffer) of HeLa cells transfected with Myc-tagged PARP12 wild-type or mutants; Western blot with anti-PARP12 antibody.
The target of experiment [4] is Myc-tagged full-length PARP12 wild-type (human) (UniProt Q9H0J9). Described as above.
The target in experiment [5] is Myc-tagged PARP12 I660A (human) (UniProt Q9H0J9). Described as above.

No constants are given. Whether binding was seen depends on the method and setting. In cells and extracts the contact can be indirect. Some results given as binding are weak or reduced against the parent protein; the word gives no strength.

Consider “FLAG-PARP12 MUT1 (amino acids 1-296) (from UniProt Q9H0J9 1-296) (domain or fragment)”, for which the binding result in experiment [1] is “no binding”.
In the case of “FLAG-PARP12 MUT2 (amino acids 1-361) (from UniProt Q9H0J9 1-361) (domain or fragment)”, the binding entry in experiment [1] is recorded as “binds”.
Regarding “FLAG-PARP12 MUT3 (amino acids 1-458) (from UniProt Q9H0J9 1-458) (domain or fragment)”, the binding entry in experiment [1] is “binds”.
Regarding “FLAG-PARP12 MUT4 (amino acids 298-701) (from UniProt Q9H0J9 298-701) (domain or fragment)”, the binding result in experiment [2] is “binds”.
As for “FLAG-PARP12 MUT5 (amino acids 364-701) (from UniProt Q9H0J9 364-701) (domain or fragment)”, the binding entry in experiment [1] is recorded as “no binding”.
As to “endogenous PARP12 (from UniProt Q9H0J9 1-701)”, the binding result in experiment [3], in experiment [4] and in experiment [5] was “binds” in each case.
